Experimental data from PubChem BioAssay AID2100 (National Center for Advancing Translational Sciences (NCATS), 2009).
About 1,200 (0.4%) of roughly 300,000 compounds were called active. The shares of active, inactive and inconclusive entries below differ from those in the screen. The call rests on the fitted dose curve; in most records, active means well fitted inhibition curve with a large enough effect; inconclusive means small, poorly fitted or top-dose-only effect, or another doubt; inactive means no such curve, though single readings can be large or run the other way. Where the call is inconclusive, the potency comes from a doubtful curve fit.

Molecular target: Lysosomal alpha-glucosidase (Homo sapiens) (UniProt P10253)
Experiment: qHTS Assay for Inhibitors and Activators of Human alpha-Glucosidase Cleavage of Glycogen
Settings: recombinant GAA, glycogen substrate, Amplex Red glucose oxidase fluorescence; series mostly up to 76.4 µM
Method in brief: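 Recombinant human alpha-glucosidase (4 nM final) hydrolysed bovine liver glycogen (30 ug) for 40 min at 37 C in pH 5.0 citrate/phosphate with 0.01% Tween-20. Released glucose detected by glucose oxidase/Amplex Red, Ex 573/Em 610 nm. Compounds up to 77 uM; AC50 from Hill fits.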
Potency means the concentration at half of the fitted maximal effect.

SMILES | Potency
N#C/C(=C\c1ccc[nH]1)C(=O)c1ccccc1 | inactive
O=C(Nc1ccc(S(=O)(=O)N(Cc2ccccc2)c2ccccc2)cc1)c1ccc([N+](=O)[O-])cc1 | inactive
CSc1ccc(C2N=C(c3ccccc3)NO2)cc1 (configuration not stated) | inconclusive: 44.7 µM [inhibitor, single point]
Brc1ccc(-c2nc3ncccn3c2NC2CCCCC2)o1 | active: 25.1 µM
Oc1[nH]c2ccccc2c1C=Nc1ccc2c(c1)OCO2 | inconclusive: 12.6 µM [inhibitor, partial curve]
CCOC(=O)C1=C(C)C/C(=N\NC(=O)c2ccccc2O)CC1 | inconclusive: 50.1 µM [inhibitor, single point]
O=c1c2ccccc2sc2nc(C3CCCCC3)n(Cc3ccco3)c(=O)c12 | inconclusive: 1.76 µM [inhibitor, partial curve]
CCCCn1c(SCC(=O)NCc2ccccc2)nc2ccc(N3CCOCC3)cc2c1=O | inactive
Cc1[nH][nH]c(=O)c1/C=N/N1CCOCC1 | inconclusive: 14.1 µM [inhibitor, partial curve]
CC(C)CC(=O)NC(=S)Nc1ccccc1N1CCCC1 | inconclusive: 11.1 µM [inhibitor, partial curve]
COc1ccc(OC)c(S(=O)(=O)Nc2ccc(Oc3ccccc3)cc2)c1 | inactive
CCc1ccc(NC(=O)Cn2c(=O)n(CC3CCCO3)c(=O)c3cc(OC)c(OC)cc32)cc1 (configuration not stated) | inactive
Nc1c(C(=O)c2ccccc2)sc2snc(SCC(=O)c3ccccc3)c12 | inactive
N#CC1=C(N)Oc2cc(O)c(Cl)cc2C1c1cccnc1 (configuration not stated) | inconclusive: 31.6 µM [activator, single point]
CCOC(=O)c1cc(C)sc1/N=C/C1C(=O)CCCC1=O | inconclusive: 31.6 µM [inhibitor, single point]
CCOc1cccc(C(=O)Nc2ccc3oc(Cc4ccc(Cl)cc4)nc3c2)c1 | inactive
Cc1cc(C)n2ncc(/C(N)=N/OC(=O)Nc3ccccc3)c2n1 | inconclusive: 7.08 µM [inhibitor, full curve]
COc1cccc(Nc2nc(-c3ccc4c(c3)OCCO4)cs2)c1 | inconclusive: 50.1 µM [inhibitor, single point]
Cc1nnc2c3ccccc3c(-c3cccs3)nn12 | inactive
Cc1ccc(CNC(=O)C2CCN(C(=O)c3cnn(-c4ccccc4)c3-n3cccc3)CC2)cc1 | inactive
CCC(C)NC(=O)CN(c1cc(C)cc(C)c1)S(=O)(=O)c1c(C)[nH]c(=O)[nH]c1=O (configuration not stated) | inactive
CC(C1CC2CCC1C2)n1c(-c2cccs2)n[nH]c1=S (configuration not stated) | inconclusive: 17.8 µM [inhibitor, partial curve]
